According to the supplement of paper PMC4166925:
± gives the standard deviation of the averaged measurements. Over roughly 33,000 sequences, “E-score (dimensionless, -0.5 to 0.5)” has its median near -0.046; the highest 2% begin near 0.36. This is one part of the list.

System: T1, SpTbr T-box DNA-binding domain (GST fusion)
T1 sequence: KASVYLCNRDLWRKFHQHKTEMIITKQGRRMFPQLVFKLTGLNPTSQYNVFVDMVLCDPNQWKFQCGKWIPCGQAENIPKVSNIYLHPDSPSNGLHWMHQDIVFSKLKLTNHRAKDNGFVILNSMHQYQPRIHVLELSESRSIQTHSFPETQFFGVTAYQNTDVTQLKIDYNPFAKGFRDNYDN
Assay: PBM E-score of 8-mer (E-score (dimensionless, -0.5 to 0.5)); Tbr is Tbrain of the sea star Patiria miniata (Pm) or the sea urchin Strongylocentrotus purpuratus (Sp); higher = stronger binding preference; most listed sequences are background and not binding sites
Settings: the construct has about 5 more residues each side
Outline: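 Expression of GST-fused Tbr T-box DNA-binding domains, each holding the full T-box plus roughly five flanking residues, was carried out in BL21 E. coli at 20 °C, with purification by glutathione affinity chromatography. Universal Agilent arrays made double-stranded by primer extension were incubated with the protein at 200 nM in PBS (pH 7.5), then scanned and quantified. All ungapped 8-mers were scored from probe intensities, and each received an enrichment E-score from the Universal PBM Analysis Suite, averaged over duplicate arrays.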

Sequence | PBM E-score of 8-mer
AACCCCGC | 0.136 ± 0.034
AATGCTCG | -0.0892 ± 0.013
CAAAAACA | 0.0761 ± 0.022
AATTGTTA | 0.149 ± 0.099
CAATAAAC | -0.024 ± 0.052
ACCGATCA | -0.0145 ± 0.012
ACTTTGCA | 0.109 ± 0.018
CCGTGTTC | 0.00821 ± 0.049
TACTCAAA | -0.0413 ± 0.031
CCAGCCTA | -0.0578 ± 0.023
ATTGGTAC | -0.114 ± 0.015
TACATGCA | -0.27 ± 0.025
AACGAATC | -0.0552 ± 0.047
AGTCCCAT | -0.147 ± 0.05
TCTGTCCA | -0.147 ± 0.011
GAACCCTA | -0.0827 ± 0.012
AGAGTTTC | -0.243 ± 0.052
CAGGAGTA | -0.192 ± 0.033
CGGATTTC | -0.158 ± 0.053
TCAGGGGA | -0.248 ± 0.0085
AAATCTCG | 0.0364 ± 0.078
CCCCGCAA | -0.0604 ± 0.009

Sequence | PBM E-score of 8-mer
CCACCTTC | 0.2634 ± 0.0018
GGTTCGAA | -0.0472 ± 0.014
CAGTGAGG | 0.0108 ± 0.00017
CCTCTCAA | 0.0499 ± 0.1
ACAAGCAG | -0.0984 ± 0.071
CACTTGCG | 0.387 ± 0.026
ATGTGCGC | 0.211 ± 0.054
CAGTGGAG | -0.0191 ± 0.077
CGGCTTCA | -0.133 ± 0.076
AGGCGTAG | 0.0197 ± 0.011
CGCTCGGC | -0.17 ± 0.043
CCCGACCA | -0.0933 ± 0.078
GTCCGCAC | 0.295 ± 0.027
ACGGACGT | -0.0499 ± 0.034
CAATTGCA | 0.27 ± 0.0096
GATGAGCA | -0.0282 ± 0.0047
AATAGAAA | -0.0389 ± 0.016
CACAAAGC | 0.0508 ± 0.018
GTTGATTA | 0.0542 ± 0.058
CAGCACAA | -0.172 ± 0.0041
ACGGGGCT | -0.0853 ± 0.058
CTAATCAG | -0.124 ± 0.0089

Sequence | PBM E-score of 8-mer
CCGCCATC | -0.0442 ± 0.011
TATCTACA | -0.0305 ± 0.072
GAGGTAAC | -0.112 ± 0.0074
ACAAGAAC | -0.128 ± 0.04
CGCGGCCA | 0.0902 ± 0.1
GTAGCTTA | -0.0295 ± 0.0053
CATCCTCC | -0.155 ± 0.0072
AGAACTTG | -0.15 ± 0.011
AATGGCTG | -0.183 ± 0.012
CAACCCTA | 0.128 ± 0.086
ATAGTCGC | 0.168 ± 0.028
ATGTGAGA | 0.414 ± 0.018
CGTGGCTC | -0.00485 ± 0.12
ATTACTCG | 0.0185 ± 0.057
ATACTGTG | 0.117 ± 0.056
ATCATTAC | -0.0536 ± 0.085
CCGCATTC | -0.08 ± 0.036
ACCACTCA | 0.139 ± 0.036
CCTCGCCC | 0.0378 ± 0.071
AAGCCAGC | -0.161 ± 0.018
CTTCTATC | -0.157 ± 0.054
CCGGCCTA | -0.0607 ± 0.018

Sequence | PBM E-score of 8-mer
GATTAGAC | -0.114 ± 0.01
GCACATGC | 0.115 ± 0.064
GGTGCTAC | 0.42 ± 0.007
CCGGATTA | -0.116 ± 0.0066
AGCGGACC | -0.0382 ± 0.12
ATACTCAC | 0.059 ± 0.036
CGTACATC | -0.1577 ± 0.0014
ATGAGGGG | -0.15 ± 0.014
GAGTAAGC | -0.0325 ± 0.03
CTGTCGCA | 0.235 ± 0.054
ATAACGGC | 0.00512 ± 0.028
ATTGCTTA | -0.0969 ± 0.034
ACCAGAAT | 0.0132 ± 0.099
CATAAACG | -0.0772 ± 0.033
ACACATCG | 0.394 ± 0.014
GGCGTCAA | 0.412 ± 0.018
ATTTTGTG | 0.0651 ± 0.12
ACCCGCAT | 0.0167 ± 0.085
CCACAGCG | 0.00125 ± 0.027
GCCCGCCA | 0.00722 ± 0.034
CAGCTTAG | -0.103 ± 0.043
ATTTGCAC | 0.239 ± 0.043

Sequence | PBM E-score of 8-mer
CGCCCCAG | -0.0657 ± 0.038
CCTTGATC | 0.0095 ± 0.041
ACATGAAG | 0.0963 ± 0.011
CACAATGG | -0.143 ± 0.003
CATCATTA | -0.0886 ± 0.042
TTATATAA | -0.136 ± 0.014
GAGCATGC | -0.143 ± 0.032
AGCGGCGG | 0.0106 ± 0.091
AGCATATA | -0.272 ± 0.061
GGGTCAGA | -0.266 ± 0.05
CTCTACAA | 0.114 ± 0.0044
AGATACAA | -0.189 ± 0.07
CCAACTGC | 0.0365 ± 0.11
ACAGCGGA | -0.0534 ± 0.11
AAGCGGGA | -0.132 ± 0.011
CACCGAGA | -0.05 ± 0.023
AACCGCAC | 0.177 ± 0.0074
AGGGAATA | -0.112 ± 0.046
TATATATA | 0.012 ± 0.058
ATGCATGG | -0.151 ± 0.12
AGACCTCC | -0.3619 ± 0.0028
ACGTACGC | 0.107 ± 0.05
